Results as given in patent US20250340636A1, “ANTIBODIES TARGETING L1CAM AND USES THEREOF” (MEMORIAL SLOAN-KETTERING CANCER CENTER, priority 2023, published 2025).

Experiments:
[1] = pH 6
[2] = molecular target: HEK293T cells overexpressing human L1CAM (Homo sapiens, UniProt P32004)
Procedure: (§1) ADC Cytotoxicity Analysis. The potency of the ADCs was tested in cytotoxicity assays using various cell types that express human L1CAM at different levels, including stably transfected HEK293T cells (overexpression), the MCF-7 breast cancer cell line (medium expression) and the MDA-MB-231 breast cancer cell line (low-medium expression). The ADCs were added to the cells at various concentrations ranging from 0.1 pM to 100 nM, and cell viability was assessed 96 hours later.
(§2) The ADCs were added to the cells at various concentrations, with 10 serial 5-fold dilutions starting at 10 μg/ml. Cell viability was assessed 96 hours later using CellTiterGlo reagent, and cell viability was plotted against antibody concentration (FIG. 18).

[3] = test system: MCF-7 breast cancer cell line
Procedure: as §1, §2

[4] = test system: MDA-MB-231 breast cancer cell line
Procedure: as §1, §2

human Neurofascin = molecular target: T1, human Neurofascin (Homo sapiens, UniProt O94856); experiment: Selectivity ELISA, Neurofascin; type: binding; settings: for binding to Neurofascin: 1 μM antibody; for Binding to human Neurofascin: at 1 μM
T1 construct: human Neurofascin (residues 25-1039 with a C-terminal 10×His tag, R&D Systems); purchased R&D Systems
T1 sequence (O94856 25-1039 isoform O94856-3): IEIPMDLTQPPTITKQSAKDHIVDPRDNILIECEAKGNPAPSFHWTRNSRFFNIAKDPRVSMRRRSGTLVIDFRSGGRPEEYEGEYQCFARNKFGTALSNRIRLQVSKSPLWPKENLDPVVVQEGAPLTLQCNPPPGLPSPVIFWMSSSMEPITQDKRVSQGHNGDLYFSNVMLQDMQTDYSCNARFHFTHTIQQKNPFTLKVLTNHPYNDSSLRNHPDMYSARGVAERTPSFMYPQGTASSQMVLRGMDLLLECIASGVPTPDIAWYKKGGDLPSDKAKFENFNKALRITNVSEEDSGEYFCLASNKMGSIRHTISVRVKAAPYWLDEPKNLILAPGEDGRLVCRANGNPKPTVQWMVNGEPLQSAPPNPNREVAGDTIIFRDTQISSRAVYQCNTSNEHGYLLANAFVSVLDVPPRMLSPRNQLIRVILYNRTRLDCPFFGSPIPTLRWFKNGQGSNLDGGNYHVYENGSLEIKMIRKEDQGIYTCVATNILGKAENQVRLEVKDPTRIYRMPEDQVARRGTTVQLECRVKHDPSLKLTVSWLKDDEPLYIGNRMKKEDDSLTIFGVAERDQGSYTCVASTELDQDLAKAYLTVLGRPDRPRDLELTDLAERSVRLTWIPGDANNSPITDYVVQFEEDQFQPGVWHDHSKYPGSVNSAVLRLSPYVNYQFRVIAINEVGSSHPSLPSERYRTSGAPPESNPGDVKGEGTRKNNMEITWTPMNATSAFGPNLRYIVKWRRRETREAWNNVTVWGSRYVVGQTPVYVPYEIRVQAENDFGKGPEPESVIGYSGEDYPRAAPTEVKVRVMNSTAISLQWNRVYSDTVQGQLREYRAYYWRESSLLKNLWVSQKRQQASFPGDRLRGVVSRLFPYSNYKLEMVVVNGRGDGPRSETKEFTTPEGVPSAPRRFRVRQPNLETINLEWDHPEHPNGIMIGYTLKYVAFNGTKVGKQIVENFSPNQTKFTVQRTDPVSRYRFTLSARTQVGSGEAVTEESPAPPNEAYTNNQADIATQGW
Description: Selectivity. […] These proteins are other members of the L1 family of cell adhesion proteins and have between 49% and 55% sequence similarity with L1CAM in the extracellular portion. […] Positive control antibodies were included for each homolog. […] Epitope. The extracellular portion of L1CAM contains six immunoglobulin-like (Ig) domains and five fibronectin type III (FN) domains. To narrow down the binding region of the development candidate mAbs, truncated versions of human L1CAM protein (Ig domain, residues 21-605; FN domain, residues 606-1116; each with a C-terminal 6×His tag) were recombinantly produced, followed by a BLI experiment to test binding at 50 and 100 nM. […] 6×His tag is set forth in SEQ ID NO: 316.

[5] = molecular target: T2, MCF-7 cells (endogenous L1CAM) (Homo sapiens, UniProt P32004); experiment: Flow cytometry binding to MCF-7 cells
T2 construct: which express endogenous L1CAM at various levels; endogenous in cells; host or cells: MCF-7
T2 sequence (P32004 20-1257): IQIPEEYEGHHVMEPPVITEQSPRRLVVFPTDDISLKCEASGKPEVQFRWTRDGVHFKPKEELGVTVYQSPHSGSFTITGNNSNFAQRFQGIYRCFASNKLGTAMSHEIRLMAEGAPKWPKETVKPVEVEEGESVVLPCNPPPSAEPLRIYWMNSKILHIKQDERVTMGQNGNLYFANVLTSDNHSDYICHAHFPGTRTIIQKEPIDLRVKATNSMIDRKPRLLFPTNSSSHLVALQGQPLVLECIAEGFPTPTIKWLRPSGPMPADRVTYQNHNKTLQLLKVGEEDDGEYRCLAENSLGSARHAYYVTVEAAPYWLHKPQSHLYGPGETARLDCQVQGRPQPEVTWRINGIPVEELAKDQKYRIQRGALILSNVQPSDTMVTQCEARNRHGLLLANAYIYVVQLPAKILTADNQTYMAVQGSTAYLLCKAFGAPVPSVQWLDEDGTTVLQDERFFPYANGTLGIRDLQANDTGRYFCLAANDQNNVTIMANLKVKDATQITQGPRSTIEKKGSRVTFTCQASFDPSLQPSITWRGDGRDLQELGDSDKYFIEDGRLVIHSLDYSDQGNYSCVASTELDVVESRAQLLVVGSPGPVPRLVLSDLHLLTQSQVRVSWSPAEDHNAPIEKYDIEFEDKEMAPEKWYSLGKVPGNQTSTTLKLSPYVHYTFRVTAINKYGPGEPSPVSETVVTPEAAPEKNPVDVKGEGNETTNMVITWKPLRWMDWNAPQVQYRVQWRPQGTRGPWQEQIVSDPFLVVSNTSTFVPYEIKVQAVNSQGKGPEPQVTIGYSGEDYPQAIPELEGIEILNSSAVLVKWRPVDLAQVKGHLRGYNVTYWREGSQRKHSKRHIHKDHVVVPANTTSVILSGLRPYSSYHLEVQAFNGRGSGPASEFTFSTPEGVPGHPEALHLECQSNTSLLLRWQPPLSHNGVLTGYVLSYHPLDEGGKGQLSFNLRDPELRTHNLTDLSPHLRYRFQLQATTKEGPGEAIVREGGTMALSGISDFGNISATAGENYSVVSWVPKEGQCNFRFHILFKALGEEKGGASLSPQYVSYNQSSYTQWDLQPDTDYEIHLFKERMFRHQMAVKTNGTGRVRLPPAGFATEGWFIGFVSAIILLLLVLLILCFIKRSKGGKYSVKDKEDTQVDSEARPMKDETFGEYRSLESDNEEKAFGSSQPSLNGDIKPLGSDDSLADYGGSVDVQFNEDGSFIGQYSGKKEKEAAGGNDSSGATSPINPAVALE
Procedure: Binding Analysis. […] Dissociation constants (KD) for binding to soluble human and cynomolgus monkey L1CAM-His were determined using biolayer interferometry (BLI). In addition, EC50 values for binding to cell-bound L1CAM were established by flow cytometry using HEK293T/FT cells overexpressing human or mouse L1CAM, MCF-7 cells, and MDA-MB-231 cells. In addition, the epitope regions of the mAbs were determined by BLI interaction analysis with L1CAM subdomains (Ig and FN) expressed individually, and by a BLI competition experiment to identify epitope bins.
Binding to L1CAM on Cells. […] Cells were then incubated with an AlexaFluor 647 goat anti-human Fc secondary antibody. After washing, the stained cells were analyzed by flow cytometry.

[6] = type: physicochemical; settings: for increase in methionine oxidation: H2O2 treated sample, mass spectrometry; for SEC-HPLC monomer: criteria >95% monomer; for CE-SDS purity: denaturing (reduction and non-reducing) conditions, criteria >90% purity; for HIC hydrophobicity: establish baseline
Procedure: Biophysical Characterization. Biophysical characterization of the CHO stable pool-derived material was performed before initiation of the solubility and stress studies to establish baseline concentrations, visual appearance, % monomer (SE-HPLC), thermal unfolding (DSF), hydrodynamic radius (DLS), polydispersity (DLS), intact mass (LC-MS) and post-translational modifications within the CDRs (LC-MS).
Forced Stress Studies. […] The starting material for all tests was formulated in 1×PBS at 20 mg/ml.
Freeze/Thaw of TDI-Y-004 and TDI-Y-005. Samples were evaluated after 5 slow freeze/thaw cycles.
Oxidative Stress of TDI-Y-004 and TDI-Y-005. Samples were exposed to 0.1% (w/v) H202 and tert-Butyl Hydroperoxide (tBHP) for 24 hours, visually inspected and then buffer exchanged back to 1×PBS. […] Given that these residues are known to be surface-exposed, the results were expected.
pH Stress of TDI-Y-004 and TDI-Y-005. Samples were buffer exchanged to 50 mM acetate buffer pH 3.5 or 50 mM Tris-HCl buffer pH 9.0, and incubated overnight at room temperature. Samples were then buffer exchanged to 1×PBS solution.
Thermal Stress of TDI-Y-004 and TDI-Y-005. Antibody formulated in 1×PBS or 20 mM His, 150 mM NaCl, pH6.0 at 20 mg/ml was subjected to extended thermal stress. Samples were incubated at 37° C. for 1 or 2 weeks.

HEK293T cells overexpressing human L1CAM, sequence (P32004 20-1257): as above

B1: TDI-Y-005 (antibody)
heavy: EVQMVESGGGLVQPGGSLRLSCAAPGFIFSSYNMNWVRQAPGKGLEWVSYISSSSSTTYYADSVKGRFTISRDNAKNSLYLQMNSLRDEDTAVYYCASLYSGYDYYYYYGMDVWGQGTTVTVSS[human IgG1 constant region not printed]
light: DIVMTQTPLSSPVSLGQPASISCRSSQSLVHSDGNTYLSWLQQRPGQPPRVLIYKISKRFSGVPDRFSGSGAGTDFTLKISRVEAEDVGVYYCMQATQFPFTFGPGTKVDIKRTVAAPSVFIFPPSDEQLKSGTASVVCLLNNFYPREAKVQWKVDNALQSGNSQESVTEQDSKDSTYSLSSTLTLSKADYEKHKVYACEVTHQGLSSPVTKSFNRGEC
[1]
  concentration at which the antibody is soluble: up to 100 mg/ml
[2]
  Cytotoxicity for cells overexpressing human L1CAM (HEK293T): Moderate
[3]
  Cytotoxicity for cells with endogenous L1CAM (MCF-7): Weak
[4]
  Cytotoxicity for cells with endogenous LICAM (MDA-MB-231): Nonspecific killing only
Human Neurofascin
  binding to Neurofascin: No binding
  Binding to human Neurofascin: No binding at 1 μM
[5]
  EC50 for binding to cells: single-digit nM range
[6]
  Forced degradation: H2O2 and tBMP Oxidation: Slight acidic shift was observed as a result of H2O2. Peptide mapping and BLI
  Forced degradation: Low and High pH stress: The molecule was stable under deferent pH conditions
  Forced degradation: Thermal Stress: cIEF acidic shift was observed
  Thermal stability comparison: thermally more stable than TDI-Y-005
  stability, pH stress: No significant changes
  increase in methionine oxidation: 96%
  SEC-HPLC monomer: SEC analysis indicated that the mAb was >97%
  CE-SDS purity: The molecule had high purity >98% under denaturing
  HIC hydrophobicity: HIC analysis indicated that the mAb was hydrophobic

B2: TDI-Y-004 (antibody)
heavy: QVQLVQSGAEVKKPGSSVKVSCKASGYTFTNYYIHWVRQAPGQGLEWMGKIGPGSGSPYYQGMFKDRVTITADESTSTAYMELSSLRSEDTAVYYCARWLLPFDYWGQGTLVTVSS[human IgG1 constant region not printed]
light: EIVLTQSPGTLSLSPGERATLSCRASSSVNYMHWYQQKPGQAPRLLIYATSILASGIPDRFSGSGSGTDYTLTISRLEPEDFAVYYCQQFSSDPLTFGGGTKVEIKRTVAAPSVFIFPPSDEQLKSGTASVVCLLNNFYPREAKVQWKVDNALQSGNSQESVTEQDSKDSTYSLSSTLTLSKADYEKHKVYACEVTHQGLSSPVTKSFNRGEC
[1]
  concentration at which the antibody is soluble: up to 100 mg/ml
[2]
  Cytotoxicity for cells overexpressing human L1CAM (HEK293T): Moderate
[3]
  Cytotoxicity for cells with endogenous L1CAM (MCF-7): Weak
[4]
  Cytotoxicity for cells with endogenous LICAM (MDA-MB-231): Nonspecific killing only
Human Neurofascin
  binding to Neurofascin: No binding
  Binding to human Neurofascin: No binding at 1 μM
[5]
  EC50 for binding to cells: single-digit nM range
[6]
  Forced degradation: H2O2 and tBMP Oxidation: Slight acidic shift was observed as a result of H2O2. Peptide mapping and BLI
  Forced degradation: Low and High pH stress: The molecule was stable under deferent pH conditions
  Forced degradation: Thermal Stress: cIEF acidic shift was observed as a result of thermal stress. Peptide mapping and
  stability, pH stress: No significant changes
  increase in methionine oxidation: 98%
  SEC-HPLC monomer: SEC analysis indicated that the mAb was > 98%
  CE-SDS purity: The molecule had high purity > 98% under denaturing
  HIC hydrophobicity: hydrophobic
